Measurements from US20250214977A1, “STAT6 INHIBITORS AND USES THEREOF” (Kymera Therapeutics, Inc., priority 2024, published 2025).

Target: T1, biotinylated truncated STAT6 (123-632)-avi (Homo sapiens, UniProt P42226)
T1 sequence (P42226 123-632 limits assumed): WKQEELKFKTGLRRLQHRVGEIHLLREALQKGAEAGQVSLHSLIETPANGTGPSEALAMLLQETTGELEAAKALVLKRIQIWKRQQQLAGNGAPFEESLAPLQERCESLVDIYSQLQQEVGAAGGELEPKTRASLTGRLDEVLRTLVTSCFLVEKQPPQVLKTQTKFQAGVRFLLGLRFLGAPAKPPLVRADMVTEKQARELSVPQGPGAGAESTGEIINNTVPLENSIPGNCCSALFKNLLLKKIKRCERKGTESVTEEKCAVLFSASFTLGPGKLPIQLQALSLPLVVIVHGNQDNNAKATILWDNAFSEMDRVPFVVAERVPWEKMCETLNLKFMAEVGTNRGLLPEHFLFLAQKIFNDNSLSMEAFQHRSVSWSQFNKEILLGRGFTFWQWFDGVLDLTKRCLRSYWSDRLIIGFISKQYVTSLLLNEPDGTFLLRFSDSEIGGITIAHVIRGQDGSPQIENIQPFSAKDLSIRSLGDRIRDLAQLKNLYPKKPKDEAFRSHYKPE
Experiment: Homogenous Time-Resolved Fluorescence (HTRF) binding assay
Settings: 0.15 nM biotinylated truncated STAT6 (123-632)-avi, 20 nM fluorescein-labeled probe

With `O=C(CCn1ccnn1)N1CCC=C(c2ccc3cc(C(=O)N4CCCC4)[nH]c3c2)C1` [Example I-124] the IC50 (30 minutes at room temperature) was 1000 to 10000 nM.

In the case of `COc1cnccc1-c1cc(C2=CCCN(C(=O)CCn3ccnn3)C2)cc2[nH]c(C(=O)N(C)C)cc12` [Example I-1060], the IC50 (30 minutes at room temperature) is reported as under 100 nM.

With `CCc1cnc(N2CCN(C(=O)c3cc4c(-c5cnccc5OC)cc(C5=CCCN(C(=O)CCn6ccnn6)C5)c(F)c4[nH]3)CC2)c(OC)c1` [Example I-453] the IC50 (30 minutes at room temperature) was under 100 nM.

In the case of `COc1ccccc1-c1cc(C2=CCCN(C(=O)CCn3ccnn3)C2)c(F)c2[nH]c(C(=O)N3CCCC(O)C3C)cc12` (stereo not shown) [Example I-1566], the IC50 (30 minutes room temperature) is reported as 100 to 1000 nM.

Compound `COc1cc(F)cnc1N1CCN(C(=O)c2cc3c(-c4cccc5c4OCCCO5)cc(C4=CCCN(C(=O)CCn5ccnn5)C4)c(F)c3[nH]2)CC1` [Example I-678] has an IC50 (30 minutes at room temperature) of under 100 nM.

`Cc1ccc(-c2cc(C3=CCCN(C(=O)CCn4ccnn4)C3)cc3cc(C(=O)N(C)C)oc23)c(O)c1` [Example I-853] gave an IC50 (30 minutes at room temperature) of under 100 nM.

`CN(C)C(=O)c1cc2cc(C3=CCCN(C(=O)CCc4ccnnc4)C3)ccc2o1` [Example I-225] gave an IC50 (30 minutes at room temperature) of 1000 to 10000 nM.

`CN(C)C(=O)c1cc2cc(C3=CCCN(C(=O)CCc4ccccc4)C3)ccc2o1` [Example I-312] gave an IC50 (30 minutes at room temperature) of 10000 to 100000 nM.

Compound `COc1ccccc1-c1cc(C2=CCCN(C(=O)CCn3ccnn3)C2)c(F)c2[nH]c(C(=O)N3CCC(CN(C)C)CC3)cc12` [Example I-1373] has an IC50 (30 minutes room temperature) of under 100 nM.

With `CN(C)C(=O)c1cc2cc(C3=CCCN(C(=O)CCn4ccnn4)C3)ccc2[nH]1` [Example I-308] the IC50 (30 minutes at room temperature) was 1000 to 10000 nM.

Compound `CCn1nccc1-c1cc(C(=O)N2Cc3cnn(CC)c3C2)cc2cc(C3=CCCN(C(C)=O)C3)n(CC3CC3)c12` [Example I-1045] has an IC50 (30 minutes at room temperature) of 100 to 1000 nM.

Compound `CN(C)C(=O)c1cc2cc(C3=CCCN(C(=O)CCn4ccnn4)C3)cc(-c3cc(C(F)(F)F)nn3C)c2o1` [Example I-855] has an IC50 (30 minutes at room temperature) of under 100 nM.

Work on `CC(=O)N1CCC=C(c2cc(-c3cnc4[nH]cc(C)c4c3)c3cc(C(=O)N(C)C)[nH]c3c2F)C1` [Example I-897] yielded an IC50 (30 minutes at room temperature) of 100 to 1000 nM.

For `CN(C)C(=O)c1cc2ccc(C3=CCCN(C(=O)Cn4ccccc4=O)C3)cc2[nH]1` [Example I-316], the IC50 (30 minutes at room temperature) was 1000 to 10000 nM.

In the case of `CN(C)C(=O)c1cc2cc(C3=CCCN(C(=O)Cc4ncccn4)C3)ccc2o1` [Example I-249], the IC50 (30 minutes at room temperature) is reported as 10000 to 100000 nM.

`CN(C)C(=O)c1cc2cc(C3=CCCN(C(=O)C4Cc5c(N)cccc5CN4C=O)C3)ccc2o1` (stereo not shown) [Example I-8] was tested, and the IC50 (30 minutes at room temperature) was under 100 nM.

In the case of `COc1cc(F)cnc1N1CCN(C(=O)c2cc3c(C4=CCN(C(C)C)CC4)cc(C4=CCCN(C(=O)CCn5ccnn5)C4)c(F)c3[nH]2)CC1` [Example I-1133], the IC50 (30 minutes at room temperature) is reported as under 100 nM.

Compound `CCOC(=O)C(=O)N1CCC=C(c2cc3cc(C(=O)N4Cc5cnn(CC)c5C4)cc(-c4ccc(CC)nc4C)c3n2CC2CC2)C1` [Example I-799] has an IC50 (30 minutes at room temperature) of over 100000 nM.

Compound `CN(C)C(=O)c1cc2cc(C3=CCCN(C(=O)CCn4ccnn4)C3)cc(-c3cnn(C)c3)c2o1` [Example I-1077] has an IC50 (30 minutes at room temperature) of under 100 nM.

`CC(=O)N1CCC=C(c2cc(-c3cc(C#N)ccc3C)c3cc(C(=O)N(C)C)[nH]c3c2F)C1` [Example I-884] showed an IC50 (30 minutes at room temperature) of 100 to 1000 nM.

Work on `CCc1nc(C)ccc1-c1cc(C(=O)N2CCN(c3ccc(F)cc3OC)CC2)cc2cc(C3=CCCN(C(=O)CCn4ccnn4)C3)n(CC3CC3)c12` [Example I-534] yielded an IC50 (30 minutes at room temperature) of over 100000 nM.

In the case of `O=C(CCn1ccnn1)N1CCC=C(c2ccc3cc(-c4cccnn4)[nH]c3c2)C1` [Example I-1313], the IC50 (30 minutes room temperature) is reported as 10000 to 100000 nM.

`COc1cc(F)cnc1N1CCN(C(=O)c2cc3c(C4=COCCC4)cc(C4=CCCN(C(=O)CCn5ccnn5)C4)c(F)c3[nH]2)CC1` [Example I-1155] was tested, and the IC50 (30 minutes at room temperature) was under 100 nM.

`COc1cc(N2CCN(C(=O)c3cc4c(-c5ccccc5OC)cc(C5=CCCN(C(=O)CCn6ccnn6)C5)c(F)c4[nH]3)CC2)c2ccccc2c1` [Example I-957] was tested, and the IC50 (30 minutes at room temperature) was 100 to 1000 nM.

`COc1cc(F)cnc1N1CCN(C(=O)c2cc3c(-c4ccc(C(C)(C)C#N)cc4)cc(C4=CCCN(C(=O)CCn5ccnn5)C4)c(F)c3[nH]2)CC1` [Example I-1142] gave an IC50 (30 minutes at room temperature) of under 100 nM.

`COc1ccccc1N1CCN(C(=O)c2cc3c(-c4cnccc4OC(C)C)cc(C4=CCCN(C(=O)CCn5ccnn5)C4)c(F)c3[nH]2)CC1` [Example I-403] was tested, and the IC50 (30 minutes at room temperature) was under 100 nM.

For `COc1cc(F)ccc1-c1cc(C2=CCCN(C(=O)CCn3ccnn3)C2)cc2[nH]c(C(=O)N(C)C)cc12` [Example I-1055], the IC50 (30 minutes at room temperature) was under 100 nM.

`COc1ccc(CO)cc1-c1cc(C2=CCCN(C(=O)CCn3ccnn3)C2)c(F)c2[nH]c(C(=O)N(C)C)cc12` [Example I-1641] was tested, and the IC50 (30 minutes room temperature) was under 100 nM.
